# Reference: article PMC3458052, “Single Amino Acid Substitutions in the Chemotactic Sequence of Urokinase Receptor Modulate Cell Migration and Invasion” (PLoS ONE, 2012)
# T1: vitronectin (UniProt P04004 20-478, ^125I (radio-iodinated with Na^125I using IODO-BEADS) on the tracer; the competitor is unlabeled)
# T1 construct: vitronectin (Vn), bought from Promega; also called Vn; ^125I-Vn; source: bought: Promega
# T1 sequence (looked up): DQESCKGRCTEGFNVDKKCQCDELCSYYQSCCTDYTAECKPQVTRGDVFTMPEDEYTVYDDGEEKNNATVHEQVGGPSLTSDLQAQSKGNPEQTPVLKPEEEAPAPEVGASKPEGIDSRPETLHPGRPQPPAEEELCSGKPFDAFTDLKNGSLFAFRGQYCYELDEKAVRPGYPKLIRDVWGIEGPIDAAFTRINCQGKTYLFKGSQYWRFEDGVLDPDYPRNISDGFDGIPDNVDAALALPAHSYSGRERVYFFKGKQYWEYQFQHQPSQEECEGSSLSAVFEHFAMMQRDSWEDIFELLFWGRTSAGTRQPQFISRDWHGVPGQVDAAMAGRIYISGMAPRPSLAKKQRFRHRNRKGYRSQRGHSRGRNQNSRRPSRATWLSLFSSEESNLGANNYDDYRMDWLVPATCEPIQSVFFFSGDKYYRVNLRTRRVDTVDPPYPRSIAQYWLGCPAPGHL
# B1: receptor for urokinase-type plasminogen activator (uPAR), wild type (receptor)
# chain: not shown
# notes: human uPAR, whole uPAR cDNA in pcDNA3, membrane-associated (GPI-anchored) on 293 cells; also called uPAR^wt; source: on intact adherent cells and in RIPA lysate
# Target: T1, vitronectin
# Assay: radioligand binding; 10 nM ^125I-Vn with increasing unlabeled Vn on adherent transfected 293 clones (2×10^5 cells/well), 3 hours at 4°C, binding buffer DMEM, 1 mg/ml BSA, 10 mM Hepes pH 7.4; surface-bound label recovered by acid wash pH 3.0; apparent Kd; cells also carry endogenous αvβ5
# Details: one partner purified
binder,measurement,value
B1,Kd,~10 nM
